# According to patent US20230322953A1 (HARBOUR BIOMED SHANGHAI, published 2023):
# What was measured:
# [1] = biological target: T1, human CTLA4 on CHO-K1/hCTLA4 cells (human, UniProt P16410 36-223); assay: flow cytometry on CHO-K1/hCTLA4 cells, Experiment 2
# T1 construct: whole, on cells; CHO-K1 cell line highly expressing human CTLA4; also called human CTLA4 cell
# [2] = biological target: T2, biotinylated human CTLA4-Fc protein (ACRO Biosystems, #CT4-H82F3) (human, UniProt P16410 36-161, biotinylated); assay: competition ELISA: coated human B7-1-Fc, biotinylated human CTLA4-Fc, Experiment 2
# T2 construct: Bought protein; also called human CTLA4 protein
Binder,EC50 [1],Maximum MFI [1],IC50 [2]
"HER2xCTLA4 bispecific antibody molecule PR001591 (bispecific antibody, human IgG1, kappa, PR000672 IgG (pertuzumab analog), PR000184 VH at N-terminus of heavy chain; linker KL-H1_15-RT; Fc human IgG1 (S239D, I332E)) light: DIQMTQSPSSLSASVGDRVTITCKASQDVSIGVAWYQQKPGKAPKLLIYSASYRYTGVPSRFSGSGSGTDFTLTISSLQPEDFATYYCQQYYIYPYTFGQGTKVEIKRTVAAPSVFIFPPSDEQLKSGTASVVCLLNNFYPREAKVQWKVDNALQSGNSQESVTEQDSKDSTYSLSSTLTLSKADYEKHKVYACEVTHQGLSSPVTKSFNRGEC heavy: EVQLVESGGGLIQPGGSLRLSCAVSGFTVSKNYMSWVRQAPGKGLEWVSVVYSGGSKTYADSVKGRFTISRDNSKNTLYLQMNSLRAEDTAVYYCARAVPHSPSSFDIWGQGTMVTVSSKLEPKSSDKTHTPPPPPRTEVQLVESGGGLVQPGGSLRLSCAASGFTFTDYTMDWVRQAPGKGLEWVADVNPNSGGSIYNQRFKGRFTLSVDRSKNTLYLQMNSLRAEDTAVYYCARNLGPSFYFDYWGQGTLVTVSSASTKGPSVFPLAPSSKSTSGGTAALGCLVKDYFPEPVTVSWNSGALTSGVHTFPAVLQSSGLYSLSSVVTVPSSSLGTQTYICNVNHKPSNTKVDKKV[human IgG1 Fc with changes not given here]",5.15 nM,2070 MFI,2.7 nM
"HER2xCTLA4 bispecific antibody molecule PR001589 (bispecific antibody, human IgG1, kappa, PR000672 IgG (pertuzumab analog), PR000184 VH at N-terminus of light chain; linker KL-H1_15-AS; Fc human IgG1) light: EVQLVESGGGLIQPGGSLRLSCAVSGFTVSKNYMSWVRQAPGKGLEWVSVVYSGGSKTYADSVKGRFTISRDNSKNTLYLQMNSLRAEDTAVYYCARAVPHSPSSFDIWGQGTMVTVSSKLEPKSSDKTHTPPPPPASDIQMTQSPSSLSASVGDRVTITCKASQDVSIGVAWYQQKPGKAPKLLIYSASYRYTGVPSRFSGSGSGTDFTLTISSLQPEDFATYYCQQYYIYPYTFGQGTKVEIKRTVAAPSVFIFPPSDEQLKSGTASVVCLLNNFYPREAKVQWKVDNALQSGNSQESVTEQDSKDSTYSLSSTLTLSKADYEKHKVYACEVTHQGLSSPVTKSFNRGEC heavy: EVQLVESGGGLVQPGGSLRLSCAASGFTFTDYTMDWVRQAPGKGLEWVADVNPNSGGSIYNQRFKGRFTLSVDRSKNTLYLQMNSLRAEDTAVYYCARNLGPSFYFDYWGQGTLVTVSS[human IgG1 constant region not given here]",9.39 nM,1870 MFI,2.59 nM
"HER2xCTLA4 bispecific antibody molecule PR001590 (bispecific antibody, human IgG1, kappa, Structure 9 2xVH-IgG; PR000672 IgG (pertuzumab analog), PR000184 VH; first linker KL-H1_15-AS, second linker KL-H1_15-RT; Fc human IgG1) light: EVQLVESGGGLIQPGGSLRLSCAVSGFTVSKNYMSWVRQAPGKGLEWVSVVYSGGSKTYADSVKGRFTISRDNSKNTLYLQMNSLRAEDTAVYYCARAVPHSPSSFDIWGQGTMVTVSSKLEPKSSDKTHTPPPPPASDIQMTQSPSSLSASVGDRVTITCKASQDVSIGVAWYQQKPGKAPKLLIYSASYRYTGVPSRFSGSGSGTDFTLTISSLQPEDFATYYCQQYYIYPYTFGQGTKVEIKRTVAAPSVFIFPPSDEQLKSGTASVVCLLNNFYPREAKVQWKVDNALQSGNSQESVTEQDSKDSTYSLSSTLTLSKADYEKHKVYACEVTHQGLSSPVTKSFNRGEC heavy: EVQLVESGGGLIQPGGSLRLSCAVSGFTVSKNYMSWVRQAPGKGLEWVSVVYSGGSKTYADSVKGRFTISRDNSKNTLYLQMNSLRAEDTAVYYCARAVPHSPSSFDIWGQGTMVTVSSKLEPKSSDKTHTPPPPPRTEVQLVESGGGLVQPGGSLRLSCAASGFTFTDYTMDWVRQAPGKGLEWVADVNPNSGGSIYNQRFKGRFTLSVDRSKNTLYLQMNSLRAEDTAVYYCARNLGPSFYFDYWGQGTLVTVSS[human IgG1 constant region not given here]",5.44 nM,1050 MFI,1.99 nM
